# Results reported in US20220233529A1, “COMBINATION THERAPY COMPRISING A2A/A2B INHIBITORS, PD-1/PD-L1 INHIBITORS, AND ANTI-CD73 ANTIBODIES” (Incyte Corporation, priority 2020, published 2022).
# T1: human CD73 (Homo sapiens, UniProt P21589)
# T1 sequence (P21589 27-549): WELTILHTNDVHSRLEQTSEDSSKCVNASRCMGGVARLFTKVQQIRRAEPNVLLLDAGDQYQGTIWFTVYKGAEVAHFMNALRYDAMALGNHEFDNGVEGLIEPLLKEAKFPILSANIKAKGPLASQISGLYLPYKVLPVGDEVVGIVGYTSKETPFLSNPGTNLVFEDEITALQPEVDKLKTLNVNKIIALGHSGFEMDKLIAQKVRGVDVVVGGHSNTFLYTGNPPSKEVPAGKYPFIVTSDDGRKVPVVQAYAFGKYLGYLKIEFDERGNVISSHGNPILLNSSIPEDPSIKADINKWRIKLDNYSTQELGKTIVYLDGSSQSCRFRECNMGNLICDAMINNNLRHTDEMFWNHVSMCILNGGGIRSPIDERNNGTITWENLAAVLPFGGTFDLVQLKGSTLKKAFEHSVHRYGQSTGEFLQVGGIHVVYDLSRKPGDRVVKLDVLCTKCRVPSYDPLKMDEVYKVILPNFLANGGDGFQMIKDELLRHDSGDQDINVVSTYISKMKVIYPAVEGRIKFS
# T2: murine CD73 (Mus musculus, UniProt Q61503)
# T2 sequence (Q61503 29-551): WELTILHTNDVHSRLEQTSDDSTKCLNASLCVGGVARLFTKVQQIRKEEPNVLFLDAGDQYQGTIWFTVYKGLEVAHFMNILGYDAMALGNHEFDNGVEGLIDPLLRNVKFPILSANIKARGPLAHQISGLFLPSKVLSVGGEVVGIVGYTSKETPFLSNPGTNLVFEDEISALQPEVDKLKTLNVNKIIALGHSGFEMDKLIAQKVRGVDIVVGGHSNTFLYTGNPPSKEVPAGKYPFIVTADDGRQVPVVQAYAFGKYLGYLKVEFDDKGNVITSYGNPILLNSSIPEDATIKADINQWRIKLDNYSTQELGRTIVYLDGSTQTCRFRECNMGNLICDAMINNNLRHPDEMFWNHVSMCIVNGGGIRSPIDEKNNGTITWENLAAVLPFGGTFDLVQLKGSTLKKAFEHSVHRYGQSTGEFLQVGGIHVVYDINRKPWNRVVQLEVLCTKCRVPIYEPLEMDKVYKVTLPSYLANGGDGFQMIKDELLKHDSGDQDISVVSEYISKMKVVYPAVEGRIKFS
# B1: ANTIBODY Y: humanized IgG1/kappa anti-CD73 monoclonal antibody with alanine at N297; heavy chain SEQ ID NO:24, light chain SEQ ID NO:25 (antibody)
# heavy: EVQLVQSGAEVKKPGESLKISCKGSGYTFTSYGLSWVRQMPGKGLEWMGEIYPGSGNTYYNEKFKGQVTISADKSISTAYLQWSSLKASDTAMYYCARYDYLGSSYGFDYWGAGTTVTVSSASTKGPSVFPLAPSSKSTSGGTAALGCLVKDYFPEPVTVSWNSGALTSGVHTFPAVLQSSGLYSLSSVVTVPSSSLGTQTYICNVNHKPSNTKVDKRV[sequence of human IgG1 Fc with changes not given]
# light: DIVMTQSPDSLAVSLGERATINCKASQDVSTAVAWYQQKPGQPPKLLIYSASYRYSGVPDRFSGSGSGTDFTLTISSLQAEDVAVYYCQQHYNTPYTFGGGTKLEIKRTVAAPSVFIFPPSDEQLKSGTASVVCLLNNFYPREAKVQWKVDNALQSGNSQESVTEQDSKDSTYSLSSTLTLSKADYEKHKVYACEVTHQGLSSPVTKSFNRGEC
# Experiments:
# [1] = system: human breast adenocarcinoma tumor, MDA-MB-231; assay: Anti-tumor efficacy in humanized murine host carrying MDA-MB-231 tumor; format: in vivo, human CD34+ reconstituted mice; details: vs Vehicle + IgG isotype, ANTIBODY Y 10 mg/kg i.p. every 5 days, retifanlimab 1 mg/mL i.p. every 5 days, Compound 9 10 mg/kg p.o. b.i.d., dosing day 7-35
# Protocol: On day 7, and every 3 to 4 days subsequently, tumors were measured by Vernier caliper and tumor volume was calculated by the formula, Volume=[L (long dimension)×W^2 (short dimension)]/2. Based on these measurements, mice were randomized into 8 treatment groups of 10 mice each with an average starting tumor volume of 180 mm^3. The studied agents were formulated and administered as follows: ANTIBODY Y was diluted to a final concentration of 1 mg/mL in phosphate-buffered saline and administered by intraperitoneal (i.p.) injection at 10 mL/kg to mice for a dose of 10 mg/kg, every 5 days. Retifanlimab (Macrogenics) was diluted to 1 mg/mL and dosed i.p., every 5 days. For combination treatments, the two antibodies were co-formulated to a concentration of 1 mg/mL, each. The oral vehicle was 5% N,N-dimethylacetamide in 0.5% methyl-cellulose in 50 mM citrate buffer, pH 3.0 (all reagents obtained from Sigma) and was administered by oral gavage (p.o.) twice daily (b.i.d.).
# Dosing began at day 7, and ran for 28 days, through day 35. […]
# Tumor Growth Inhibition (TGI), defined as (1-treatment group volume)/control group volume)×100 was analyzed for the whole study on day 47, the last day prior to some animals leaving the study at their endpoint. […]
# human CD73 = biological target: T1, human CD73; assay: Binding affinity of anti-CD73 antibody to human CD73
# murine CD73 = biological target: T2, murine CD73; assay: Binding affinity of anti-CD73 antibody to murine CD73
molecule,measurement,setting,value
B1,Percent TGI (Day 47 Tumor Growth Inhibition),[1],2.20%
same,Kd,human CD73,0.5 nM
same,binding to mouse CD73,murine CD73,undetectable binding
